# The list shows a part of the results.
# B1: DC-ASGPR-short (Homo sapiens) (protein)
# chain: MTRTYENFQYLENKVKVQGFKNGPLPLQSLLQRLRSGPCHLLLSLGLGLLLLVIICVVGFQNSKFQRDLVTLRTDFSNFTSNTVAEIQALTSQGSSLEETIASLKAEVEGFKQERQAVHSEMLLRVQQLVQDLKKLTCQVATLNNNASTEGTCCPVNWVEHQDSCYWFSHSGMSWAEAEKYCQLKNAHLVVINSREEQNFVQKYLGSAYTWMGLSDPEGAWKWVDGTDYATGFQNWKPGQPDDWQGHGLGGGEDCAHFHPDGRWNDDVCQRPYHWVCEAGLGQTSQESH
# How the values were obtained:
# Assay in all cases: glycan array binding signal (z-score within array); higher = stronger binding
# Conditions in all cases: glycan notation: IUPAC condensed, linker removed
# [1] = target: Gal(b1-3)GlcNAc(b1-3)Gal(b1-4)GlcNAc(b1-2)Man(a1-3)[Gal(b1-3)GlcNAc(b1-3)Gal(b1-4)GlcNAc(b1-2)Man(a1-6)]Man(b1-4)GlcNAc(b1-4)GlcNAc
# Procedure, shortened: (§1)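 Glycan array data were curated from 3228 arrays in the Consortium for Functional Glycomics database and kept only where the protein sequence was available. Glycan names were converted to IUPAC-condensed notation, and columns mapping to the same glycan were averaged. The binding signal is a within-array Z-score, averaged across arrays of the same protein sequence at different concentrations or buffers and across linkers. Negative Z-scores can be read as non-binding.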
# [2] = target: Gal(b1-3)GlcNAc(b1-3)Gal(b1-4)GlcNAc(b1-2)[Gal(b1-3)GlcNAc(b1-3)Gal(b1-4)GlcNAc(b1-6)]Man(a1-6)[Gal(b1-3)GlcNAc(b1-3)Gal(b1-4)GlcNAc(b1-2)Man(a1-3)]Man(b1-4)GlcNAc(b1-4)[Fuc(a1-6)]GlcNAc
# Procedure, shortened: as §1
# [3] = target: Gal(b1-3)GlcNAc(b1-3)Gal(b1-4)GlcNAc(b1-3)Gal(b1-4)GlcNAc(b1-2)[Gal(b1-3)GlcNAc(b1-3)Gal(b1-4)GlcNAc(b1-3)Gal(b1-4)GlcNAc(b1-6)]Man(a1-6)[Gal(b1-3)GlcNAc(b1-3)Gal(b1-4)GlcNAc(b1-3)Gal(b1-4)GlcNAc(b1-2)Man(a1-3)]Man(b1-4)GlcNAc(b1-4)[Fuc(a1-6)]GlcNAc
# Procedure, shortened: as §1
# [4] = target: Gal(b1-3)GlcNAc(b1-3)Gal(b1-4)GlcNAc(b1-6)[Gal(b1-3)GlcNAc(b1-3)]Gal(b1-4)Glc
# Procedure, shortened: as §1
# [5] = target: Gal(b1-3)GlcNAc(b1-3)Gal(b1-4)[Fuc(a1-3)]GlcNAc
# Procedure, shortened: as §1
# [6] = target: Gal(b1-3)GlcNAc(b1-3)Gal(b1-4)[Fuc(a1-3)]GlcNAc(b1-6)[Gal(b1-3)GlcNAc(b1-3)]Gal(b1-4)Glc
# Procedure, shortened: as §1
# [7] = target: Gal(b1-3)GlcNAc(b1-3)GalNAc
# Procedure, shortened: as §1
# [8] = target: Gal(b1-3)GlcNAc(b1-6)Gal(b1-4)GlcNAc
# Procedure, shortened: as §1
# [9] = target: Gal(b1-3)GlcNAc(b1-6)GalNAc
# Procedure, shortened: as §1
# [10] = target: Gal(b1-3)GlcNAc(b1-6)[Gal(b1-3)]GalNAc
# Procedure, shortened: as §1
# Gal(b1-3)GlcNAc6S = target: Gal(b1-3)GlcNAc6S
# Procedure, shortened: as §1
# [11] = target: Gal(b1-3)[Fuc(a1-4)]GlcNAc
# Procedure, shortened: as §1
# [12] = target: Gal(b1-3)[Fuc(a1-4)]GlcNAc(b1-2)Man
# Procedure, shortened: as §1
# [13] = target: Gal(b1-3)[Fuc(a1-4)]GlcNAc(b1-2)Man(a1-3)[Gal(b1-3)[Fuc(a1-4)]GlcNAc(b1-2)Man(a1-6)]Man(b1-4)GlcNAc(b1-4)[Fuc(a1-6)]GlcNAc
# Procedure, shortened: as §1
# [14] = target: Gal(b1-3)[Fuc(a1-4)]GlcNAc(b1-3)Gal(b1-3)[Fuc(a1-4)]GlcNAc
# Procedure, shortened: as §1
# [15] = target: Gal(b1-3)[Fuc(a1-4)]GlcNAc(b1-3)Gal(b1-4)[Fuc(a1-3)]GlcNAc
# Procedure, shortened: as §1
# [16] = target: Gal(b1-3)[Fuc(a1-4)]GlcNAc(b1-6)GalNAc
# Procedure, shortened: as §1
# [17] = target: Gal(b1-3)[GlcNAc(b1-6)]GalNAc
# Procedure, shortened: as §1
# [18] = target: Gal(b1-3)[Neu5Ac(a2-6)]GalNAc
# Procedure, shortened: as §1
# [19] = target: Gal(b1-3)[Neu5Ac(a2-6)]GlcNAc(b1-4)Gal(b1-4)Glc
# Procedure, shortened: as §1
# [20] = target: Gal(b1-3)[Neu5Ac(b2-6)]GalNAc
# Procedure, shortened: as §1
# Gal(b1-4)Gal = target: Gal(b1-4)Gal
# Procedure, shortened: as §1
# [21] = target: Gal(b1-4)GalNAc(a1-3)[Fuc(a1-2)]Gal(b1-4)GlcNAc
# Procedure, shortened: as §1
# [22] = target: Gal(b1-4)GalNAc(b1-3)[Fuc(a1-2)]Gal(b1-4)GlcNAc
# Procedure, shortened: as §1
# Gal(b1-4)Glc = target: Gal(b1-4)Glc
# Procedure, shortened: as §1
# Gal(b1-4)Glc6S = target: Gal(b1-4)Glc6S
# Procedure, shortened: as §1
# Gal(b1-4)GlcNAc = target: Gal(b1-4)GlcNAc
# Procedure, shortened: as §1
# [23] = target: Gal(b1-4)GlcNAc(a1-6)Gal(b1-4)GlcNAc
# Procedure, shortened: as §1
# Gal(b1-4)GlcNAc(b1-2)Man = target: Gal(b1-4)GlcNAc(b1-2)Man
# Procedure, shortened: as §1
# [24] = target: Gal(b1-4)GlcNAc(b1-2)Man(a1-3)Man(b1-4)GlcNAc(b1-4)GlcNAc
# Procedure, shortened: as §1
# [25] = target: Gal(b1-4)GlcNAc(b1-2)Man(a1-3)[Gal(b1-4)GlcNAc(b1-2)Man(a1-6)]Man(b1-4)GlcNAc(b1-4)GlcNAc
# Procedure, shortened: as §1
# [26] = target: Gal(b1-4)GlcNAc(b1-2)Man(a1-3)[Gal(b1-4)GlcNAc(b1-2)Man(a1-6)]Man(b1-4)GlcNAc(b1-4)[Fuc(a1-6)]GlcNAc
# Procedure, shortened: as §1
# [27] = target: Gal(b1-4)GlcNAc(b1-2)Man(a1-3)[Gal(b1-4)GlcNAc(b1-2)Man(a1-6)][Gal(b1-4)GlcNAc(b1-4)]Man(b1-4)GlcNAc(b1-4)[Fuc(a1-6)]GlcNAc
# Procedure, shortened: as §1
# [28] = target: Gal(b1-4)GlcNAc(b1-2)Man(a1-3)[Gal(b1-4)GlcNAc(b1-2)Man(a1-6)][GlcNAc(b1-4)]Man(b1-4)GlcNAc(b1-4)[Fuc(a1-6)]GlcNAc
# Procedure, shortened: as §1
# [29] = target: Gal(b1-4)GlcNAc(b1-2)Man(a1-3)[GlcNAc(b1-2)Man(a1-6)]Man(b1-4)GlcNAc(b1-4)GlcNAc
# Procedure, shortened: as §1
# [30] = target: Gal(b1-4)GlcNAc(b1-2)Man(a1-3)[GlcNAc(b1-4)][Gal(b1-4)GlcNAc(b1-2)Man(a1-6)]Man(b1-4)GlcNAc(b1-4)GlcNAc
# Procedure, shortened: as §1
# [31] = target: Gal(b1-4)GlcNAc(b1-2)Man(a1-3)[Man(a1-6)]Man(b1-4)GlcNAc(b1-4)GlcNAc
# Procedure, shortened: as §1
# [32] = target: Gal(b1-4)GlcNAc(b1-2)Man(a1-6)Man(b1-4)GlcNAc(b1-4)GlcNAc
# Procedure, shortened: as §1
binder,measurement,setting,value
B1,glycan array binding signal (z-score),[1],-0.221
same,glycan array binding signal (z-score),[2],0.663
same,glycan array binding signal (z-score),[3],0.287
same,glycan array binding signal (z-score),[4],-0.275
same,glycan array binding signal (z-score),[5],-0.281
same,glycan array binding signal (z-score),[6],-0.283
same,glycan array binding signal (z-score),[7],-0.274
same,glycan array binding signal (z-score),[8],-0.283
same,glycan array binding signal (z-score),[9],1.82
same,glycan array binding signal (z-score),[10],-0.158
same,glycan array binding signal (z-score),Gal(b1-3)GlcNAc6S,-0.268
same,glycan array binding signal (z-score),[11],-0.264
same,glycan array binding signal (z-score),[12],-0.106
same,glycan array binding signal (z-score),[13],-0.153
same,glycan array binding signal (z-score),[14],-0.26
same,glycan array binding signal (z-score),[15],-0.28
same,glycan array binding signal (z-score),[16],0.593
same,glycan array binding signal (z-score),[17],-0.088
same,glycan array binding signal (z-score),[18],-0.275
same,glycan array binding signal (z-score),[19],-0.278
same,glycan array binding signal (z-score),[20],-0.278
same,glycan array binding signal (z-score),Gal(b1-4)Gal,-0.295
same,glycan array binding signal (z-score),[21],-0.284
same,glycan array binding signal (z-score),[22],-0.277
same,glycan array binding signal (z-score),Gal(b1-4)Glc,-0.265
same,glycan array binding signal (z-score),Gal(b1-4)Glc6S,-0.266
same,glycan array binding signal (z-score),Gal(b1-4)GlcNAc,-0.272
same,glycan array binding signal (z-score),[23],-0.282
same,glycan array binding signal (z-score),Gal(b1-4)GlcNAc(b1-2)Man,0.188
same,glycan array binding signal (z-score),[24],-0.284
same,glycan array binding signal (z-score),[25],-0.276
same,glycan array binding signal (z-score),[26],-0.28
same,glycan array binding signal (z-score),[27],-0.276
same,glycan array binding signal (z-score),[28],-0.285
same,glycan array binding signal (z-score),[29],-0.283
same,glycan array binding signal (z-score),[30],-0.282
same,glycan array binding signal (z-score),[31],-0.16
same,glycan array binding signal (z-score),[32],-0.281
